Data published in the supplement of paper PMC8728848.
The list shows a part of the results.

Assays:
Test in all cases: glycan array binding signal (z-score within array); higher = stronger binding
Details in all cases: glycan notation: IUPAC condensed, linker removed
[1] = target: Fuc(a1-2)Gal(b1-4)GlcNAc(b1-3)Gal(b1-4)GlcNAc(b1-2)Man(a1-3)[Fuc(a1-2)Gal(b1-4)GlcNAc(b1-3)Gal(b1-4)GlcNAc(b1-2)Man(a1-6)]Man(b1-4)GlcNAc(b1-4)GlcNAc
Outline: (§1)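 From the Consortium for Functional Glycomics database, 3228 arrays were curated, keeping only those whose protein sequence was available. Binding is given as a within-array Z-score averaged across arrays sharing a protein sequence and across linkers. Negative Z-scores can be read as non-binding.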

[2] = target: Fuc(a1-2)Gal(b1-4)GlcNAc(b1-3)Gal(b1-4)GlcNAc(b1-3)Gal(b1-4)GlcNAc
Outline: as §1

[3] = target: Fuc(a1-2)Gal(b1-4)GlcNAc(b1-3)GalNAc
Outline: as §1

[4] = target: Fuc(a1-2)Gal(b1-4)GlcNAc(b1-3)[Fuc(a1-2)Gal(b1-4)GlcNAc(b1-6)]GalNAc
Outline: as §1

[5] = target: Fuc(a1-2)Gal(b1-4)GlcNAc(b1-3)[Fuc(a1-3)[Gal(b1-4)]GlcNAc(b1-6)]Gal(b1-4)Glc
Outline: as §1

[6] = target: Fuc(a1-2)Gal(b1-4)GlcNAc(b1-6)GalNAc
Outline: as §1

[7] = target: Fuc(a1-2)Gal(b1-4)GlcNAc6S
Outline: as §1

[8] = target: Fuc(a1-2)Gal(b1-4)[Fuc(a1-3)]GlcNAc
Outline: as §1

[9] = target: Fuc(a1-2)Gal(b1-4)[Fuc(a1-3)]GlcNAc(b1-2)Man(a1-3)[Fuc(a1-2)Gal(b1-4)[Fuc(a1-3)]GlcNAc(b1-2)Man(a1-6)]Man(b1-4)GlcNAc(b1-4)[Fuc(a1-6)]GlcNAc
Outline: as §1

[10] = target: Fuc(a1-2)Gal(b1-4)[Fuc(a1-3)]GlcNAc(b1-2)[Fuc(a1-2)Gal(b1-4)[Fuc(a1-3)]GlcNAc(b1-4)]Man(a1-3)[Fuc(a1-2)Gal(b1-4)[Fuc(a1-3)]GlcNAc(b1-2)Man(a1-6)]Man(b1-4)GlcNAc(b1-4)GlcNAc
Outline: as §1

[11] = target: Fuc(a1-2)Gal(b1-4)[Fuc(a1-3)]GlcNAc(b1-3)Gal(b1-4)[Fuc(a1-3)]GlcNAc
Outline: as §1

[12] = target: Fuc(a1-2)Gal(b1-4)[Fuc(a1-3)]GlcNAc(b1-3)Gal(b1-4)[Fuc(a1-3)]GlcNAc(b1-3)Gal(b1-4)[Fuc(a1-3)]GlcNAc
Outline: as §1

[13] = target: Fuc(a1-2)Gal(b1-4)[Fuc(a1-3)]GlcNAc(b1-3)GalNAc
Outline: as §1

[14] = target: Fuc(a1-2)Gal(b1-4)[Fuc(a1-3)]GlcNAc(b1-3)[Neu5Ac(a2-6)Gal(b1-4)GlcNAc(b1-6)]Gal(b1-4)Glc
Outline: as §1

[15] = target: Fuc(a1-2)Gal3S(b1-4)GlcNAc
Outline: as §1

[16] = target: Fuc(a1-2)Gal6S(b1-3)GlcNAc
Outline: as §1

[17] = target: Fuc(a1-2)Gal6S(b1-3)GlcNAc6S
Outline: as §1

Fuc(a1-2)Gal6S(b1-4)Glc = target: Fuc(a1-2)Gal6S(b1-4)Glc
Outline: as §1

[18] = target: Fuc(a1-2)Gal6S(b1-4)Glc6S
Outline: as §1

Fuc(a1-2)[Gal(a1-3)]Gal = target: Fuc(a1-2)[Gal(a1-3)]Gal
Outline: as §1

[19] = target: Fuc(a1-2)[Gal(a1-3)]Gal(b1-3)GalNAc
Outline: as §1

[20] = target: Fuc(a1-2)[Gal(a1-3)]Gal(b1-3)GalNAc(b1-3)Gal(a1-4)Gal(b1-4)Glc
Outline: as §1

[21] = target: Fuc(a1-2)[Gal(a1-3)]Gal(b1-3)GlcNAc
Outline: as §1

[22] = target: Fuc(a1-2)[Gal(a1-3)]Gal(b1-3)GlcNAc(b1-2)Man(a1-3)[Fuc(a1-2)[Gal(a1-3)]Gal(b1-3)GlcNAc(b1-2)Man(a1-6)]Man(b1-4)GlcNAc(b1-4)GlcNAc
Outline: as §1

[23] = target: Fuc(a1-2)[Gal(a1-3)]Gal(b1-3)GlcNAc(b1-2)Man(a1-3)[Fuc(a1-2)[Gal(a1-3)]Gal(b1-3)GlcNAc(b1-2)Man(a1-6)]Man(b1-4)GlcNAc(b1-4)[Fuc(a1-6)]GlcNAc
Outline: as §1

[24] = target: Fuc(a1-2)[Gal(a1-3)]Gal(b1-3)GlcNAc(b1-3)GalNAc
Outline: as §1

[25] = target: Fuc(a1-2)[Gal(a1-3)]Gal(b1-3)GlcNAc(b1-6)GalNAc
Outline: as §1

[26] = target: Fuc(a1-2)[Gal(a1-3)]Gal(b1-4)Glc
Outline: as §1

[27] = target: Fuc(a1-2)[Gal(a1-3)]Gal(b1-4)GlcNAc
Outline: as §1

[28] = target: Fuc(a1-2)[Gal(a1-3)]Gal(b1-4)GlcNAc(b1-2)Man
Outline: as §1

[29] = target: Fuc(a1-2)[Gal(a1-3)]Gal(b1-4)GlcNAc(b1-2)Man(a1-3)[Fuc(a1-2)[Gal(a1-3)]Gal(b1-4)GlcNAc(b1-2)Man(a1-6)]Man(b1-4)GlcNAc(b1-4)GlcNAc
Outline: as §1

[30] = target: Fuc(a1-2)[Gal(a1-3)]Gal(b1-4)GlcNAc(b1-2)Man(a1-3)[Fuc(a1-2)[Gal(a1-3)]Gal(b1-4)GlcNAc(b1-2)Man(a1-6)]Man(b1-4)GlcNAc(b1-4)[Fuc(a1-6)]GlcNAc
Outline: as §1

[31] = target: Fuc(a1-2)[Gal(a1-3)]Gal(b1-4)GlcNAc(b1-3)GalNAc
Outline: as §1

[32] = target: Fuc(a1-2)[Gal(a1-3)]Gal(b1-4)GlcNAc(b1-3)[Fuc(a1-2)[Gal(a1-3)]Gal(b1-4)GlcNAc(b1-6)]GalNAc
Outline: as §1

[33] = target: Fuc(a1-2)[Gal(a1-3)]Gal(b1-4)GlcNAc(b1-6)GalNAc
Outline: as §1

[34] = target: Fuc(a1-2)[Gal(a1-3)]Gal(b1-4)[Fuc(a1-3)]Glc
Outline: as §1

[35] = target: Fuc(a1-2)[Gal(a1-3)]Gal(b1-4)[Fuc(a1-3)]GlcNAc
Outline: as §1

B1: Epa1to9 (Candida glabrata) (protein)
chain: MGSSHHHHHHSSGLVPRGSHMTSSNDISLASKDPTTFPLGCSPDITTPKKGLSMELYSYDFRKKGSYPCWDAAYLDPNYPRTGYKSHRLLAKVDGVTGNINFYYHATKGCTPQLGHLPASYNYPKPLTMTNFTMLLYGYFRPKVTGFHTFTISADDLLFVNFGAGNAFDCCRRDSSADHFGNYQAYAIWGSKTAKDELTVHLDAGVYYPIRLFYNNRDYHGALSFTFKTESNENTVSDFSEYFFSLDDTEEGCPGLISYD
- glycan array binding signal (z-score) [1]: -0.308
- glycan array binding signal (z-score) [2]: -0.411
- glycan array binding signal (z-score) [3]: -0.34
- glycan array binding signal (z-score) [4]: -0.282
- glycan array binding signal (z-score) [5]: -0.289
- glycan array binding signal (z-score) [6]: -0.291
- glycan array binding signal (z-score) [7]: 0.019
- glycan array binding signal (z-score) [8]: -0.384
- glycan array binding signal (z-score) [9]: -0.274
- glycan array binding signal (z-score) [10]: -0.269
- glycan array binding signal (z-score) [11]: -0.349
- glycan array binding signal (z-score) [12]: -0.36
- glycan array binding signal (z-score) [13]: -0.269
- glycan array binding signal (z-score) [14]: -0.231
- glycan array binding signal (z-score) [15]: 1.08
- glycan array binding signal (z-score) [16]: 0.035
- glycan array binding signal (z-score) [17]: -0.224
- glycan array binding signal (z-score) (Fuc(a1-2)Gal6S(b1-4)Glc): -0.208
- glycan array binding signal (z-score) [18]: -0.066
- glycan array binding signal (z-score) (Fuc(a1-2)[Gal(a1-3)]Gal): 0.426
- glycan array binding signal (z-score) [19]: -0.126
- glycan array binding signal (z-score) [20]: -0.324
- glycan array binding signal (z-score) [21]: -0.152
- glycan array binding signal (z-score) [22]: -0.266
- glycan array binding signal (z-score) [23]: -0.304
- glycan array binding signal (z-score) [24]: -0.268
- glycan array binding signal (z-score) [25]: -0.284
- glycan array binding signal (z-score) [26]: -0.136
- glycan array binding signal (z-score) [27]: 0.221
- glycan array binding signal (z-score) [28]: -0.048
- glycan array binding signal (z-score) [29]: -0.278
- glycan array binding signal (z-score) [30]: -0.264
- glycan array binding signal (z-score) [31]: -0.194
- glycan array binding signal (z-score) [32]: -0.159
- glycan array binding signal (z-score) [33]: -0.328
- glycan array binding signal (z-score) [34]: -0.269
- glycan array binding signal (z-score) [35]: -0.276
